# ± gives the standard deviation of the averaged measurements. This is one part of the list.
# Tested on: PfAP2-LT AP2 domain (GST-tagged)
# Experiment: gcPBM binding intensity (ln(normalized median fluorescence intensity)); higher = stronger DNA binding
# How it was run: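 The binding buffer was 1× PBS containing 1% milk, 0.2 mg/ml BSA, 0.5% salmon testes DNA and 0.03% Triton X-100. In it, GST-tagged P. falciparum DNA-binding domains expressed in E. coli were applied for 1 h to an Agilent 4 × 180k array of primer-extended double-stranded 36-bp intergenic genomic probes plus negative controls. Binding intensity, read with Alexa488 anti-GST antibody and a 488 nm scan, is the highest Masliner-normalised natural-log median intensity across replicate spots of either probe orientation.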
row,Sequence,gcPBM binding intensity (ln)
1,TATATATATATATATGTGCACATATTTATATGTTTT,9.65 ± 0.071
2,GAAATTAAATGACATACACACTATATTATATATTTT [CACACA_site5693],8.81 ± 0.4
3,TAGATAGATTAAAATACATGCATATTATTAAAAAAT [TGCATGCA_site739],8.78 ± 0.41
4,CACCCATACACATACAAACACACATTCTATATATAT [CACACA_site1600],9.28 ± 0.46
5,AGCATAAAAATGATATGTACATATATATATATATAT [XGTACX_site2836],9.805 ± 0.035
6,CATACATACATACATACACACATACATATGTATATA [CACACA_site7216],9.38 ± 0.33
7,AATCATAAACATTATGCACACAAAAATAAAAAAAAA [CACACA_site8289],9.16 ± 0.45
8,TATCTTCAATGTGAAAGTACTTAAATTGTTATAAAA [XGTACX_site2586],8.38 ± 0.3
9,ATTTAATGTATTTTGCGTACGAATTATTTTATTTCA [XGTACX_site7331],9 ± 0.47
10,TATCAAAAAAAAAGTAGTACGATAATAGTTTCCCAA [XGTACX_site1812],8.73 ± 0.4
11,AAAAAAAAAACAAATGCATGTAATATAAGAATTACA [TGCATGCA_site908],8.74 ± 0.52
12,ACTTATAATATTTAGTGTACATATTGTGACTAATAC [XGTACX_site1508],8.87 ± 0.46
13,TATTTATAAATTTACACACACACATGTGAACATAAA [CACACA_site1909],9.29 ± 0.29
14,ATTTTAAAAAATTAATGTACTTAATTAATACTGAAA [XGTACX_site7702],8.14 ± 0.43
15,ATTTGTTCATTTGGTTGTACATAATTTATTTTTATA [XGTACX_site785],8.86 ± 0.44
16,ATTTCTTTAATATACACACACCAAAACAAAAAAAAA [CACACA_site6416],9.11 ± 0.38
17,TTTTCATTTTTTTTTTTTTTTTTTTTTCTTTTTTTT [CACACA_negctrl_site1312],8.43 ± 0.61
18,AAAAACAATCATTTTAAATAAAAATCTCTAATTTAA [GTGCAC_negctrl_site138],8.2 ± 0.45
19,ATATAGTTCGATATAGTTAGTATGAATTGAAAAATA [CACACA_negctrl_site1826],8.54 ± 0.46
20,TTTTTAAAATATTTAACACACAATTTTAATGCATAA [CACACA_site6036],8.53 ± 0.38
21,AAAAAAATAAAACACACACACAAAAAAATAAAAATA [CACACA_site465],9.56 ± 0.3
22,GTTGTGTAATTCGTAACACACATAAAATATATATAA [CACACA_site6059],9.13 ± 0.38

row,Sequence,gcPBM binding intensity (ln)
1,TTAATTATGGACAGGGTGCACATGAATAATAATACC,9.14 ± 0.54
2,TATATTATAATAAGACGTACAAGGATGTTAAAACTT [XGTACX_site5828],8.84 ± 0.38
3,ACCTAATTCAAATACAGTACATATACAATATATATA [XGTACX_site2779],8.76 ± 0.38
4,AAAAAATATTGAAGTACACACATTATAAACTTTTTT [CACACA_site5029],8.86 ± 0.49
5,AAAATTAAAAATTACTGTACGTATTAGAGAATAAAT [XGTACX_site2567],8.72 ± 0.36
6,TATATTGTATAAAAATGTACATGCAATAAATTTAGT [XGTACX_site5621],8.82 ± 0.38
7,AAAATATTAATTAATACATGCATATATATATATATA [TGCATGCA_site585],9.78 ± 0.29
8,TACATTAACGGATTATTTCTCAATACAACATCATTT [CACACA_negctrl_site981],8.62 ± 0.47
9,GTTTGTATGTCCAAATGTACATATGATTTTATGAAA [XGTACX_site6595],8.69 ± 0.31
10,ATAGTATACAGACACACACACACACCCATATATATA [CACACA_site1736],10.2 ± 0.29
11,AGGATATAAATATTCACACACACATGGAGATATATA [CACACA_site6317],9.54 ± 0.39
12,TTCTTAAATGTAAATGTATATGTATTAAAAAGAGAA [TGCATGCA_negctrl_site597],8.43 ± 0.35
13,TACTGTGTTTTGGTTGTACACACGCTACATTATATA [CACACA_site8863],9.32 ± 0.45
14,TTATAATATTAATGTGCACACAATTAAAATATTATA [CACACA_site2046],9.03 ± 0.38
15,ATGTTTTATATTTTTTTTTTGTTTGCTTGTTTCCTC [CACACA_negctrl_site870],8.89 ± 0.57
16,AAGGGAAATATTGAAACACACACGAACCCACGTATT [CACACA_site252],9.38 ± 0.25
17,ATACTAAATGAACACACACACATATATATATATAAT [CACACA_site4232],9.87 ± 0.23
18,TATAACTTTTTTATTACACACCTATGTAATATTATA [CACACA_site944],8.81 ± 0.42
19,AAATAAATATATAATACACACAAAAATATAAAATGG [CACACA_site5943],9.24 ± 0.34
20,AACAGACATAGAAACACACATACATACATACATACA [CACACA_site2479],9.53 ± 0.65
21,TTTTTTATATTAAATGAAGAATATACAAAATTTTAA [CACACA_negctrl_site558],7.96 ± 0.36
22,TTTTGTTAGTTTTTTTTCTTATATTACATTTTCACG [CACACA_negctrl_site1466],8.72 ± 0.55

row,Sequence,gcPBM binding intensity (ln)
1,ATGTAGTCTCAAGACTGTACAAACAAGTAAATAAAA [XGTACX_site4120],8.99 ± 0.43
2,AAATTATAAATAATTTGTACATAAAAATTGGTAAAG [XGTACX_site5197],8.72 ± 0.36
3,ACATGTGAAGGGAACATAAATTGGGGTTTTATATTG [XGTACX_negctrl_site508],9.02 ± 0.19
4,GAATATAAAAAAGAATGTACTTGAACAGTCCTAAAA [XGTACX_site745],8.6 ± 0.48
5,TCCATCCACATATATGTACACACATATATATATATA [CACACA_site8970],9.57 ± 0.18
6,GTTAAGGGTATATATACACACATATGTAATACATGA [CACACA_site5650],9.2 ± 0.39
7,ACAATTTTATTTAAAGTGCATGTAAAATTAAAACTT,8.51 ± 0.4
8,AATAAATATCAATACACACACACAAAAGTGAATAAA [CACACA_site3763],9.68 ± 0.29
9,TATACATTTATGTACACACACATATATGTATATTTA [CACACA_site2966],9.2 ± 0.39
10,AAAGGAAGAAAAAATAGTACATATATATATATATAA [XGTACX_site766],9.26 ± 0.27
11,ATTTTTTACGTATAGTACAAAGTTTTATGATACATA [CACACA_negctrl_site965],8.73 ± 0.49
12,ATGAAATATATTATATGTACATATTTATTTTTTATA [XGTACX_site7319],8.63 ± 0.49
13,CATTATAAAAAATAAAAAAGAAATAATTGTATATGC [CACACA_negctrl_site478],8.63 ± 0.42
14,AAATGCTAAAAATAGAGTACAGATAACGAAAAGTGT [XGTACX_site8830],9.12 ± 0.51
15,AAATAGTAAATAAGGGGTACAAAAAAAAAAAAAAAA [XGTACX_site8362],8.48 ± 0.7
16,AAAAAATTGACTAATGCACACAATTACATATATATA [CACACA_site1689],8.97 ± 0.43
17,CAATTTTTCTATCATTGTACTTTTATATAATAGTGT [XGTACX_site1810],8.78 ± 0.39
18,ATTATAAATACACGCACACACACTTATATATATATA [CACACA_site5776],9.76 ± 0.33
19,AATTGTTCTATGATTTGTACACACTTTTTTTTAAAA [XGTACX_site5984],8.96 ± 0.45
20,TTTTTTGCTTTCAACACACATACAATCTATATAATC [CACACA_site4125],8.8 ± 0.42
21,TAAACCTGTAGAGATGCATGCATTGTTAACATGGTG [TGCATGCA_site515],9.03 ± 0.39
22,AAGGAGAAATAAATATTAAAAAATTTATATATATAT [CACACA_negctrl_site1801],8.7 ± 0.42

row,Sequence,gcPBM binding intensity (ln)
1,TAATATTGCAAATATAAAAAAAAATAAACCATATAT [XGTACX_negctrl_site458],8.81 ± 0.47
2,TTCTTTTTTAACAACAAAAAAAAAAAAAAAAAAAAA [TGCATGCA_negctrl_site87],8.12 ± 0.19
3,CCATTTACCCTTGCCATGCACACTTTTTTATAGAAA [CACACA_site3505],9.07 ± 0.55
4,AAAATAATGTTTATATGTACATATATATATATATAT [XGTACX_site8815],9.32 ± 0.099
5,ATATTTTTTTATAAATGTACAAAAATAATATTGCAT [XGTACX_site7399],8.47 ± 0.3
6,TTATAAAAATAATATCGTACAAATGATAAAGATTAA [XGTACX_site4893],8.69 ± 0.44
7,TGAATTCGTCAAAAGCGTACATATAATATCTTCTTG [XGTACX_site8842],8.81 ± 0.4
8,ACATATATATATATATATAATATTTTATATTTATTA [CACACA_negctrl_site713],8.72 ± 0.36
9,TATATAGTAATATATACACACACTTGTCTTGTAAAA [CACACA_site990],9.17 ± 0.33
10,TTTTTATTTAATATTTTAAAAAAAAATCATTTTTAA [XGTACX_negctrl_site207],7.8 ± 0.47
11,AAGATTAATATTTTATGTACATATGTAATATATATG [XGTACX_site4367],8.75 ± 0.37
12,AAGAATACACCACGCACACACACTTGAGAAAAAATA [CACACA_site3828],9.96 ± 0.47
13,TTCTTTGTGGTATAGATACACACTATATTAATATGA [CACACA_site2150],8.95 ± 0.51
14,ATATATACCTAAGACACACACATATAGATTTATATA [CACACA_site6498],9.29 ± 0.34
15,ATTTTAGATATCCTGCGTACACAAATTGCTTTATTT [XGTACX_site7149],9.11 ± 0.45
16,AAAATTTCAATAAATACACACATATATATATATATT [CACACA_site1685],9.04 ± 0.33
17,AAATAATATATGAATGCACACAGTAAAAATTAAAGA [CACACA_site2252],9.21 ± 0.43
18,ATAAATTTATATACTTGTACATATATATATTACATA [XGTACX_site6697],8.73 ± 0.4
19,TATATATACATATACACACACACACCCATATATATA [CACACA_site2246],10 ± 0.11
20,TTTGAAATAAAAAGGTGTACACTCGATTAATAAATA [XGTACX_site6943],8.7 ± 0.44
21,TTTTAGCACTTATTATAAGATATCAAAAAGATGGGT [XGTACX_negctrl_site325],8.52 ± 0.4
22,ACTATCATTTTTTTAACACACAAAAAAAATAAAATA [CACACA_site3519],8.64 ± 0.37
